The RNAGym collection of RNA variant scans (doi:10.1093/nar/gkz1192)
Read counts are not given, so values of variants with three or more changes are uncertain.

B1: CPEB3 Ribozyme (parent)
chain: UAACAGGGGGCCACAGCAGAAGCGUUCACGUCGCAGCCCCUGUCAGAUUCUGGUGAAUCUGCGAAUUCUGCUGUAUAUCUC

Variants of: B1
Assay: self-cleavage, relative activity (ratio to wild type); higher = more cleavage; in vitro, sequencing
In short: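 Libraries of CPEB3 self-cleaving ribozyme mutants came from rounds of error-prone PCR and carried barcodes, which DNA sequencing matched to variants. In vitro transcription used T7 RNA polymerase at 37°C for 5 hours, with a further 15 min in DNase I before EDTA stopped the reaction; the ribozymes cleaved during both steps. The RNA was reverse transcribed with template switching and sequenced on Illumina. Relative activity is the cleaved/total read fraction of a variant divided by that of the unmutated ribozyme, averaged over three batches with at least 5 reads.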
UAAAAGGGGGCCACAGCAGAAGCGUUCACGUCGCUGCCCCUGUCAGAUUCUGGUAUUCCCGCGAAUUCUGCUGUAUAUCUC gave a self-cleavage of 0.12.
Work on UAAAAGGGGGCCACAGCAGAAGCGUUCACGUCGCAGCCCCUGUCGGACUCCGGUGAAUCUACGAAUUCAGCUGUAUAUCUC yielded a self-cleavage of 0.16.
For UAAAAGGGGGCCACAGGAGAAGCGUUCACGUCGCAGCCCCUGUCAGAUUCUGGUGAAUCAGCGAAUUCUGCUGUAUAUCUC, the self-cleavage was 0.28.
With UAAAAGGGGGCCACAGCAGAAGCGUUCACGUCGCAGCACCUGUCAGAUUCUGGUGAAUCUGCGAACUCUGCUGUAUAUCUC the self-cleavage was 0.16.
UAAAAGGAGGCCAAAGCAGAGGCGUUCACGUCGCAGCCCCUGUCAGAUUCUGGUGAAUCUGCGAAUUCUGCCGUUUAUCUC showed a self-cleavage of 0.05.
In the case of UAAAAGGGGGCCACAGCAGAAGCGUCCUCGUCGCAGCCCCUGUCAGAUUCUGGUGAAUCUGCGAAUUCUGCUGCAUAUCUC, the self-cleavage is reported as 0.61.
UAAAAGGGGGCCACAGCAGAAGCGUCCACGUCGCAGACCCUGUCAGACUCUGGUGAAUCUGCGAAUUCUGCUGUAUAUCUC showed a self-cleavage of 0.18.
In the case of UAAAAGGGGGCCACAGCAGAAGCGUUCACGUCGCAGCCCCCGUCGGAUUCUGGUGAAUCUGCAAAUUCUGCUGUAUAUCUC, the self-cleavage is reported as 0.97.
Work on UAAAAGGGGGCCACAGCAGAAGCGUUCACGUCGCAGCCCCCGUCAGAUUCUGGUGAAUCUGCGAAUUCUGCUGUAUACCUC yielded a self-cleavage of 1.18.
In the case of UAAAAGGGGGCCACAGCAGAAGCGUUCACGUCGCAGCCCCUGUCAGAUUCUGGUGAAUCUGCGAAUUCUGCAGUAUAUCAC, the self-cleavage is reported as 1.25.
With UAAGAGGGGGCCUCAGCAGAAGCGUUCACGCCGCAGCCCCUGUCAGAUUCUGGUGAAUCUGCGAAUCCUGCUGUAUAUCUC the self-cleavage was 0.19.
Variant UAAGAGGGGGCCACGGCAGAAGCGUUCACGUCGCAGCCCCUGUCAGAUCCUGGUGAAUCUGCGAAUUCCGCUGUAUAUCUC has a self-cleavage of 0.16.
For UAAGAGGGGGCCACAGCGGGAGGGUUCACGUCGCAGCCCCUGUCAGAUUCUGGUGAAUCUGCGAAUUCUGCUGUAUAUCUC, the self-cleavage was 0.11.
Variant UAAGAGGGGGCCACAGCGGAAGCGUUCACGCCGCAGCCCCUGUCAGAUUCGGGCGAAUCUGCGAAUUCUGCAGUAUAUCUC has a self-cleavage of 0.25.
For UAAGAGGGGGCCACAGCAGGAGCGUUCACGUCGCAGCCCCUGUCAGAUUCUGGUGAAUCUGCGAAUUCAGCUGUAUAUCUC, the self-cleavage was 0.55.
In the case of UAAGAGGGGGCCACAGCAGAGGCGUUCACGUCGCAGCCCCUGUCAGAUUCUGGUGAGUCUGCGAAUUCUGCUGUAUAUCUC, the self-cleavage is reported as 0.81.
In the case of UAAGAGGGGGCCACAGCAGAAGCGUUCCCGUCGCAGCCCCUGUCAGAUUCUGGUGAAUCUGCGAAUUCUGCUGUAAAUCUC, the self-cleavage is reported as 0.88.
With UAAGAGGGGGCCACAGCAGAAGCGUUCACGUCGCAGCCCCUGUCGGAUUCUGGUGAAUCUGCGAAUUCUGCUGUAUAUCCC the self-cleavage was 1.16.
Work on UAAGAGGGGGCAACAACAGAAGCGUUCACGUCGCAGCCCCUGUCAGAUUCUGGUGAAUCUGCGAAUUCUGCUGUAUAUCUC yielded a self-cleavage of 0.99.
For UAAGAGGGGGCUACAGCAGAAGCGCUCACGUCGCAGCCCCUGUCUGGUUCUGGUGAAUCUGCGGAUUCUGCUGUAUAUCCC, the self-cleavage was 0.12.
UAAGAGGGGGCUACAGCAGAAGCGUUCACGUCGCAGCCCCUGUCAGAUUCUGGAGAAUCUGCGAAUUCUGCAGUAUAUCUU showed a self-cleavage of 1.32.
UAAGAGGGGGCCAUGGCAGAAGCGUUCACGUCGCAGCCCCUGUCAGAUUCUGGUGAAUCUGCGGAUUCUGCUAUAUAUCUC showed a self-cleavage of 1.29.
UAAGAGGGGGCCACAGUAGAAGCGUUCCCGUCGCAGCCCCUGUCUGAUUCUGGUGAAUCUGCGAAUUCUGCUGUACACCUC gave a self-cleavage of 0.09.
In the case of UAAGAGGGGGCCACAGCAGAAGCGUUCAUGUCGCAGCUCCUGUCAGAUUCUGGUGAAUCUGCGAACACUGCUGUAUAUCUC, the self-cleavage is reported as 0.48.
With UAAGAGGAGGCCUCAGCAGAAGCGUUCACGUCACAGCCCCUGUCAGAUUCUGGCGAAUCCGCGAAUUCUGCUGUAUACCUC the self-cleavage was 0.05.
UAAGAGGGGUCCACAGCGGAAGCGUUCACGUCGCAGCCCCUGUCAGAUUCUGGAGAAUCUGCGACUUCUGCUGUAUAUCUC showed a self-cleavage of 0.08.
UAAGAGGGGGCCACAGCAGAAGCGUUCACGUCGCAGCCCCUGUCAGAUUCUGGUGAAUCAGCGAAUUCUGCUGUAUACCUC gave a self-cleavage of 0.64.
Variant UAAUGGGGGGCCACAGCAGAAGCGUCCACGUCGCAGCCCCUGUCAGAUUCUGGUGAGUCUGCGAAUUCUGCUGUAUAUCUC has a self-cleavage of 0.29.
In the case of UAAUUGGGGGCCACAGCAGAAGCGUUCGCGUCGCAGCCCCUGUCAGAUUCUGGGGGAUCUGCGUAUUCUGCUGCAUAUCUC, the self-cleavage is reported as 0.18.
For UAAUAGGGGGCCUCGGCAGAAGCGUUCACGUCGCAGCCCCUGUCAGAUUCUGGUGAAUCUGCGAAUUCUGCAGUAUAUCUC, the self-cleavage was 0.46.
With UAAUAGGGGGCCUCAGCAGAAGCGUUCGCGUCGCAACCCCUGCCAGAUUCUGGUGAAUCUGUGAAUUCUGCUGUAUAUCUC the self-cleavage was 0.34.
Work on UAAUAGGGGGCCUCAGCAGAAGCGUUCACGUCGCGGCCCCUGUCAGAUUCUGGUGAAUCUGCGAAUUCUGCUGUAUAUCUC yielded a self-cleavage of 1.37.
UAAUAGGGGGCCACGGCAGAAGCGUCCACGUCGCUGCCCCUGUCAGAUACUGGUGAAUCUGCGAAUUCUGCUGUAUAUCUC gave a self-cleavage of 0.17.
UAAUAGGGGGCCACUGCAGAAGCGUUCACGCCGCAGCCCCUGCCAGAUUCUGGUGAGUCUGCGAAUUCUGCUGUAUAUCUC showed a self-cleavage of 0.24.
